From the supplement of paper PMC3334620
In all, about 33,000 sequences were measured (“E-score (-0.5 to 0.5)”: median about -0.032, highest 2% from about 0.36 on). This is one part of the list.

Molecular target: T1, Sko1 (UniProt Q02100)
T1 sequence: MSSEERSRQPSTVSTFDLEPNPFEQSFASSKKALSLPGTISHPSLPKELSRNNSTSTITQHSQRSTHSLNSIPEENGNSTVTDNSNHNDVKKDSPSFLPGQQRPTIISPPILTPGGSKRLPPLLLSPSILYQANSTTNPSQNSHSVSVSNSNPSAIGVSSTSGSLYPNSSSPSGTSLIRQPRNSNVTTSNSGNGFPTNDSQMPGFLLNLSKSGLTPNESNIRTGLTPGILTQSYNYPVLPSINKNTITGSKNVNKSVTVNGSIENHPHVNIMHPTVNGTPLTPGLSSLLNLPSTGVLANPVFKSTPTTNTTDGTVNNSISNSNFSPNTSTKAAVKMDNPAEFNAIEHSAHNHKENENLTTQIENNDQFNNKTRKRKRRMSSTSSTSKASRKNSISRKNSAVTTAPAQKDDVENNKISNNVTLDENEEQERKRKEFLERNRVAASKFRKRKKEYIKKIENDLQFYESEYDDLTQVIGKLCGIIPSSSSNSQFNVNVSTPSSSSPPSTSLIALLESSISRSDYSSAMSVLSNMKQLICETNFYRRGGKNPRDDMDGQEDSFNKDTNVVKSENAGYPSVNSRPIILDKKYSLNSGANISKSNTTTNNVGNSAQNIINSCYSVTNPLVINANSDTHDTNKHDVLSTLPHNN
Assay: PBM E-score (8-mer binding enrichment) (E-score (-0.5 to 0.5)); higher = stronger / more preferred TF binding; most listed sequences are background and not binding sites
Details: protein concentration: 200 nM; construct: GST-full length
In short: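 PURExpress in vitro transcription/translation supplied GST-tagged yeast transcription factors, either full-length or DNA-binding domain. Applied at about 100-200 nM to universal all-10-mer Agilent arrays double-stranded by primer extension, the bound protein was detected with fluorescent anti-GST. E-scores, modified Wilcoxon-Mann-Whitney statistics, were given by the Universal PBM Analysis Suite to ungapped eight-base words pooled with their reverse complements after masliner normalisation.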

| Sequence | PBM E-score |
| --- | --- |
| TGGCTAAA | -0.0287 |
| GTAAAAAA | 0.0568 |
| ACTCCTCG | -0.0285 |
| ACAGTGCG | 0.0112 |
| GAGCGATA | -0.0889 |
| AAGAATAT | -0.0449 |
| GCGCACAA | 0.0465 |
| CTAGTTGC | -0.0258 |
| AGTCGTTA | 0.0683 |
| CGTCCCCC | -0.268 |
| ACGGTGTA | 0.00144 |
| ATAATCGG | 0.0781 |
| GCGGAAAC | -0.261 |
| CCTTGTTA | 0.00091 |
| ATACCATC | 0.0763 |
| ATCTGATG | -0.146 |
| GTATCTAA | 0.201 |
| GAACATAC | 0.2 |
| ACAAAAAC | 0.138 |
| GGCAACAC | -0.0781 |
| AGGCAGTA | -0.129 |
| TAACGAAA | 0.252 |
| TCCGTACA | 0.0313 |
| GACTACAA | -0.0168 |
| ACGAGCGA | 0.108 |

| Sequence | PBM E-score |
| --- | --- |
| CAGGAGGA | -0.283 |
| GAATGGCA | -0.0995 |
| ATCTCGAC | 0.0145 |
| CGCAGATA | -0.00801 |
| AAATTTAC | 0.286 |
| GAAAAACC | 0.00051 |
| CTCGGTGC | -0.165 |
| CGCACTGC | 0.0583 |
| AAGCGGGG | -0.2 |
| CGTTTAAG | 0.0295 |
| ACGCAGGG | 0.292 |
| AACCATCG | 0.126 |
| AGCTCAGC | 0.0708 |
| GGTACCGA | -0.303 |
| CACAGCTG | -0.125 |
| CTCACGGC | -0.147 |
| ATTGTACC | 0.106 |
| TACGCCGA | -0.0247 |
| GGCACTTA | -0.197 |
| AAATAGGG | -0.196 |
| AGTCTTAG | -0.28 |
| CAGTTAGG | 0.0181 |
| ACCTTGAG | 0.0663 |
| ACCAGGGT | -0.354 |
| CAGAATGG | 0.00443 |

| Sequence | PBM E-score |
| --- | --- |
| GGGTAAAC | -0.107 |
| GAACAGTA | 0.0956 |
| CCGGCCCC | -0.331 |
| GTTATACA | 0.22 |
| AACTGTAC | 0.0739 |
| GTGAATCA | 0.0223 |
| AGCGAATA | 0.107 |
| CTGATGTA | 0.255 |
| TCAATGCA | 0.131 |
| AAATGTGT | 0.127 |
| AGACGTCT | 0.271 |
| AGTTCGAG | -0.0377 |
| AAATTCAC | 0.014 |
| ATGATCCC | -0.111 |
| CACCGAAG | -0.11 |
| GATAAATA | 0.129 |
| GGCTAAAC | -0.142 |
| TGGTTGAA | -0.0168 |
| GGGCGCAA | -0.175 |
| GGATTATA | -0.109 |
| AACGTCAC | 0.471 |
| ATCATGCG | 0.0801 |
| ATCCTACA | -0.0771 |
| CGCAAGGC | -0.0674 |
| CGGAGCAC | -0.208 |

| Sequence | PBM E-score |
| --- | --- |
| CGTAACAG | 0.374 |
| ACGGGGAG | -0.229 |
| ATTCAAAG | 0.123 |
| CGCGGGTC | -0.0442 |
| CAACGACA | 0.115 |
| CCTTAGTA | -0.102 |
| CAGACCTA | 0.125 |
| AACTCCGC | -0.149 |
| CAAAAACG | 0.188 |
| CTCGAAAA | 0.0133 |
| CAACCAAG | 0.0968 |
| CGGGGGCA | -0.24 |
| GAACGATA | -0.115 |
| ACATGAGC | -0.00402 |
| AGTAACAG | -0.0766 |
| GACGAATC | 0.291 |
| CGCTCATA | -0.0863 |
| AGATACCC | -0.0725 |
| AAGCCCGG | -0.265 |
| AAACCCTA | -0.103 |
| ACCTCTGG | -0.237 |
| CAGACCCC | -0.307 |
| AGAGATGG | -0.0345 |
| ACAAATCA | 0.2 |
| GTGATAAC | 0.201 |

| Sequence | PBM E-score |
| --- | --- |
| TAGAGAGA | -0.0704 |
| CCCCAGGG | -0.401 |
| GGATCACA | 0.041 |
| CAATTGCC | 0.0716 |
| GCGTCGCC | 0.043 |
| CACCGCCA | -0.0533 |
| CTCCAACC | -0.0963 |
| CGGTTCTA | -0.118 |
| ATGCCCAC | 0.0382 |
| AATATAGG | 0.168 |
| CTGGCTCA | -0.108 |
| CGTGGGAC | 0.065 |
| TCGAACAA | 0.171 |
| ACATCTGG | -0.063 |
| GAAGGAGC | -0.183 |
| GAATTGAC | 0.0399 |
| ATGCCTTG | -0.0855 |
| CCAGGGCG | -0.3 |
| CTCCACGA | 0.0266 |
| AAAGAGCG | 0.0322 |
| AACAAGCC | -0.133 |
| GCCCCACA | -0.0155 |
| GCGGGTCC | -0.162 |
| GCTATTCC | -0.128 |
| CGTCCTTA | -0.0754 |

| Sequence | PBM E-score |
| --- | --- |
| ATCTATAG | -0.0108 |
| CTGATCCA | -0.136 |
| ACATCAAG | 0.242 |
| CGCGCTCC | -0.121 |
| GAGTGCTA | -0.158 |
| AACTCCGG | -0.0665 |
| AGTTTGTC | -0.0092 |
| TGAACCAA | 0.108 |
| AAATCAAA | 0.126 |
| ATCGCTAC | -0.0081 |
| AGTTACCG | -0.0227 |
| ACGGTATG | 0.164 |
| CATATTCG | 0.145 |
| GCGTATAA | 0.271 |
| GTAGACAA | 0.114 |
| GGACTTGA | -0.142 |
| CGGACGAA | 0.0658 |
| ACGGGCCC | -0.224 |
| ATTAAACC | 0.0603 |
| ATTCTTGG | -0.00065 |
| AGACCCCT | -0.242 |
| ATCAATGA | 0.294 |
| GGCCCACC | -0.243 |
| CGATTCTC | -0.0652 |
| ACGTACTA | 0.426 |

| Sequence | PBM E-score |
| --- | --- |
| GAGGGGAA | -0.0615 |
| CCTACTCC | -0.16 |
| GACCCGCA | -0.149 |
| GCGCTCCA | -0.256 |
| ATCCTCCG | -0.212 |
| CTAGTAAC | -0.0053 |
| GACAATAA | 0.116 |
| CGACACTC | -0.00392 |
| ATCGTCGC | 0.0155 |
| CAGCGCGG | -0.158 |
| CACCGGTG | -0.274 |
| CGACGGAG | -0.197 |
| ATTGATGG | 0.146 |
| GAAGGTCA | 0.0225 |
| CCGTTCAC | -0.191 |
| CCTACGAA | 0.0841 |
| ACCTCCTC | -0.0403 |
| CTTGTGTA | 0.12 |
| CCGAAAGA | -0.0515 |
| CGCATCGC | -0.0224 |
| GAATCTCC | -0.198 |
| CCCTTCTC | -0.362 |
| GTTTTCGA | 0.111 |
| CATTGGTC | -0.282 |
| CACAAATC | 0.0576 |

| Sequence | PBM E-score |
| --- | --- |
| AACGAAAG | 0.15 |
| GGGGTGGA | -0.138 |
| AAAGTTCC | -0.132 |
| TCATGAAA | 0.0769 |
| GAGCCGGC | -0.243 |
| AGTTTATG | 0.0927 |
| CAGTTCGG | -0.064 |
| ATGTGTCG | 0.0574 |
| CACCTCTC | -0.0383 |
| CTAAGATA | -0.023 |
| CGTGAGCC | -0.0606 |
| ATCAATTA | 0.303 |
| AGCAATAC | 0.123 |
| ACTTTCCG | -0.0709 |
| AGGTGGCG | -0.0429 |
| ACCTTGGG | -0.0151 |
| TGTGTGAA | 0.149 |
| TCTACAAA | 0.0537 |
| AATGTAGT | 0.0143 |
| ACTTGAGA | 0.132 |
| AACATGTA | 0.243 |
| AATCTTAT | 0.193 |
| CAAGCTTG | -0.133 |
| ATGCCCTG | -0.17 |
| AGAGGAAT | -0.0119 |

| Sequence | PBM E-score |
| --- | --- |
| CAGTTCTC | 0.00085 |
| GATGCGTA | 0.272 |
| AAACCCCC | -0.331 |
| CTATCTCA | 0.0341 |
| AGACTTTC | -0.0806 |
| ACATAATC | 0.319 |
| AGAGTATA | -0.0892 |
| GAGTTCCC | -0.273 |
| ATGAGCCG | -0.232 |
| ACCTTCTG | -0.156 |
| ACAGCGCC | -0.304 |
| AAGACCTA | -0.109 |
| CTCGGGTA | -0.272 |
| ACAGGTCA | -0.104 |
| AATACGGG | -0.111 |
| CGCCCGTC | -0.172 |
| GTGTACTA | 0.171 |
| GTCGGAAA | 0.0588 |
| GTAAGGTA | 0.255 |
